Values joined by “and” are separate entries in the source; they are usually repeats but may differ in a detail not shown here. Identical values can stand only once. At least one read-out could not be matched to a standard name with certainty.
Tested on: SKOV3 cells
Assay: Image analysis of treated SKOV3 cells: mitotic index and interphase phenotype distance from control
Type: cell-based
Conditions: for Mitotic Index: FIG. 5B conditions; for Interphase Off-Target: distance from control interphase phenotype
From the text: In one specific example, a particular group of cellular features for characterizing the interphase phenotype of a cell could include, for all cells that are not mitotic: • the average size of cell nuclei; • the average elliptical axis ratio for nuclei; • the average kurtosis intensity of cells; • the average pixel intensity for Golgi apparatus in cells; • the average cell area; • the elliptical axis ratio for cells; • the form factor (area divided by perimeter) for cells; • the kurtosis of the intensity of tubulin; • the second moment of a cell; • the average total intensity of tubulin for each cell; • the proportion of branched (i.e. having projections) cells.
In one embodiment, after each cellular feature has been characterized, and similarly for the control group cellular features, a distance in multivariate space may be calculated. This can be the distance from a normal interphase phenotype as presented in the horizontal axis of FIG. 5A (described below). For the purposes of simplicity of discussion, if it is assumed that there are only three cellular features (a, b, c) comprising the interphase phenotype signature, and where the subscript ‘t’ refers to a feature of a treated cell and the subscript ‘c’ refers to a feature of a control cell, then the distance (L1) in multivariate space between the interphase signature of the treated cells and interphase signature of the control cells can be calculated as L1=|at−ac|+|bt−bc|+|ct−cc|, which provides the interphase metric.
FIG. 5A presents data showing that certain compounds producing the rice phenotype have very little effect on phenotypic features of interphase cells. In FIG. 5A, the vertical axis presents mitotic index, which is a measure of a compound's ability to cause mitotic arrest (thereby its ability to have a profound effect on the phenotype of mitotic cells), and the horizontal axis presents a “combined distance” from a normal interphase phenotype. The combined distance takes into account various features that characterize interphase phenotype, including those described above (i.e., the average size of cell nuclei, the average elliptical axis ratio for nuclei, the average kurtosis intensity of cells, etc.) Greater values on the horizontal axis indicate greater deviations from a control phenotype for interphase cells.
FIG. 5B is a profile graph showing that the interphase cells treated with rice compounds track interphase control cells for various interphase phenotypic features. These features include, as shown on the horizontal axis, the relative number of objects (putative cells), the average area occupied by DNA in the objects (presumably nuclei), the average axes ratio of the DNA regions in the objects, the average kurtosis of the Golgi regions, the mean intensity of the Golgi regions, average area encompassed by tubulin in the objects, the average axes ratio of tubulin in the objects, the average kurtosis of the tubulin regions, the average form factor of the tubulin regions, the average moment of the tubulin regions, the average total intensity of tubulin in each object, and the branching properties of the tubulin in the objects. Note that the cells used to generate this graph were treated with markers for Golgi (LC for labeled LC Lectin), DNA (HO for Hoechst stain), and tubulin (DM for labeled DM1-α). As shown, the rice features closely track those of the DMSO treated cells and diverge strongly from the interphase cells of Taxol treated cells.
The data of FIG. 5B were obtained by treating SKOV3 cells with many different compounds and then capturing the interphase characteristics shown in the horizontal axis using image analysis techniques. The concentration of each compound was chosen by determining what concentration of a compound produced a mitotic index between 14 and 17% after cells were treated at multiple concentrations and then imaged to capture Golgi, tubulin, and DNA data for the interphase features shown in FIG. 5B. […]

Compound	Mitotic Index (concentration 4.00E−05 Molar)	Interphase Off-Target (concentration 4.00E−05 Molar)	Mitotic Index (concentration 2.00E−05 Molar)	Interphase Off-Target (concentration 2.00E−05 Molar)	other results
COc1cc(C2NC(=O)N(C)C(C)=C2C(=O)OCCC(C)C)cc(Br)c1O (stereo not shown) [4-(3-Bromo-4-hydroxy-5-methoxy-phenyl)-1,6-dimethyl-2-oxo-1,2,3,4-tetrahydro-pyrimidine-5-carboxylic acid 3-methyl-butyl ester]	16%	2.0	–	–	–
CCOC(=O)CN1C(=O)NC(c2cc(Br)c(O)c(OC)c2)C(C(=O)OC(C)(C)C)=C1C (stereo not shown) [4-(3-Bromo-4-hydroxy-5-methoxy-phenyl)-1-ethoxycarbonylmethyl-6-methyl-2-oxo-1,2,3,4-tetrahydro-pyrimidine-5-carboxylic acid tert-butyl ester]	–	–	16%	2.2	–
COc1cc(C2NC(=O)NC(C)=C2C(=O)OC(C)C(C)(C)C)cc(Br)c1O (stereo not shown) [4-(3-Bromo-4-hydroxy-5-methoxy-phenyl)-6-methyl-2-oxo-1,2,3,4-tetrahydro-pyrimidine-5-carboxylic acid 1,2,2-trimethyl-propyl ester]	–	–	–	–	Mitotic Index (concentration 1.00E−05 Molar): 17%; Interphase Off-Target (concentration 1.00E−05 Molar): 0.6
CC1=C(C(=O)OC(C)(C)C)C(c2ccc(O)c(Br)c2)NC(=O)N1 (stereo not shown) [4-(3-Bromo-4-hydroxy-phenyl)-6-methyl-2-oxo-1,2,3,4-tetrahydro-pyrimidine-5-carboxylic acid tert-butyl ester]	14%	1.5	–	–	–
COc1cc(C2NC(=O)NC(C)=C2C(=O)OC(C)(C)C)cc(Cl)c1O (stereo not shown) [4-(3-Chloro-4-hydroxy-5-methoxy-phenyl)-6-methyl-2-oxo-1,2,3,4-tetrahydro-pyrimidine-5-carboxylic acid tert-butyl ester]	–	–	16%	1.1	–
CC1=C(C(=O)OC(C)(C)C)C(c2cc(Br)c(N)c(Br)c2)NC(=O)N1 (stereo not shown) [4-(4-Amino-3,5-dibromo-phenyl)-6-methyl-2-oxo-1,2,3,4-tetrahydro-pyrimidine-5-carboxylic acid tert-butyl ester]	–	–	16%	1.1	–
COc1cc(C2NC(=O)NC(C)=C2C(=O)OC(C)(C)C)cc(I)c1O (stereo not shown) [4-(4-Hydroxy-3-iodo-5-methoxy-phenyl)-6-methyl-2-oxo-1,2,3,4-tetrahydro-pyrimidine-5-carboxylic acid tert-butyl ester]	17%	1.8	–	–	–
CC(=O)O[C@H]1C(=O)[C@@]2(C)[C@H]([C@H](OC(=O)c3ccccc3)[C@]3(O)C[C@H](OC(=O)[C@H](O)[C@@H](NC(=O)c4ccccc4)c4ccccc4)C(C)=C1C3(C)C)[C@]1(OC(C)=O)CO[C@@H]1C[C@@H]2O [Taxol, reference compound]	–	–	–	–	Mitotic Index (concentration 6.25E−09 Molar): 16% and 17%; Interphase Off-Target (concentration 6.25E−09 Molar): 5.6 and 5.4

From patent US20050282208A1, “Cellular phenotype” (Cytokinetics, Inc., priority 2004, published 2005)
